Reference: ChEMBL document CHEMBL1961873, “Compounds: GSK PKIS; Assays: Nanosyn kinase panel” (2012)
For some of these results: Most of the strong results are listed elsewhere, so they are rarer here than in the full data. The list shows a part of the results, in another mix than the full data.

The molecules below were run against Proto-oncogene tyrosine-protein kinase ROS (Homo sapiens) (UniProt P08922). Conditions: at 1 µM.
Chain of UniProt P08922 (P08922 whole entry): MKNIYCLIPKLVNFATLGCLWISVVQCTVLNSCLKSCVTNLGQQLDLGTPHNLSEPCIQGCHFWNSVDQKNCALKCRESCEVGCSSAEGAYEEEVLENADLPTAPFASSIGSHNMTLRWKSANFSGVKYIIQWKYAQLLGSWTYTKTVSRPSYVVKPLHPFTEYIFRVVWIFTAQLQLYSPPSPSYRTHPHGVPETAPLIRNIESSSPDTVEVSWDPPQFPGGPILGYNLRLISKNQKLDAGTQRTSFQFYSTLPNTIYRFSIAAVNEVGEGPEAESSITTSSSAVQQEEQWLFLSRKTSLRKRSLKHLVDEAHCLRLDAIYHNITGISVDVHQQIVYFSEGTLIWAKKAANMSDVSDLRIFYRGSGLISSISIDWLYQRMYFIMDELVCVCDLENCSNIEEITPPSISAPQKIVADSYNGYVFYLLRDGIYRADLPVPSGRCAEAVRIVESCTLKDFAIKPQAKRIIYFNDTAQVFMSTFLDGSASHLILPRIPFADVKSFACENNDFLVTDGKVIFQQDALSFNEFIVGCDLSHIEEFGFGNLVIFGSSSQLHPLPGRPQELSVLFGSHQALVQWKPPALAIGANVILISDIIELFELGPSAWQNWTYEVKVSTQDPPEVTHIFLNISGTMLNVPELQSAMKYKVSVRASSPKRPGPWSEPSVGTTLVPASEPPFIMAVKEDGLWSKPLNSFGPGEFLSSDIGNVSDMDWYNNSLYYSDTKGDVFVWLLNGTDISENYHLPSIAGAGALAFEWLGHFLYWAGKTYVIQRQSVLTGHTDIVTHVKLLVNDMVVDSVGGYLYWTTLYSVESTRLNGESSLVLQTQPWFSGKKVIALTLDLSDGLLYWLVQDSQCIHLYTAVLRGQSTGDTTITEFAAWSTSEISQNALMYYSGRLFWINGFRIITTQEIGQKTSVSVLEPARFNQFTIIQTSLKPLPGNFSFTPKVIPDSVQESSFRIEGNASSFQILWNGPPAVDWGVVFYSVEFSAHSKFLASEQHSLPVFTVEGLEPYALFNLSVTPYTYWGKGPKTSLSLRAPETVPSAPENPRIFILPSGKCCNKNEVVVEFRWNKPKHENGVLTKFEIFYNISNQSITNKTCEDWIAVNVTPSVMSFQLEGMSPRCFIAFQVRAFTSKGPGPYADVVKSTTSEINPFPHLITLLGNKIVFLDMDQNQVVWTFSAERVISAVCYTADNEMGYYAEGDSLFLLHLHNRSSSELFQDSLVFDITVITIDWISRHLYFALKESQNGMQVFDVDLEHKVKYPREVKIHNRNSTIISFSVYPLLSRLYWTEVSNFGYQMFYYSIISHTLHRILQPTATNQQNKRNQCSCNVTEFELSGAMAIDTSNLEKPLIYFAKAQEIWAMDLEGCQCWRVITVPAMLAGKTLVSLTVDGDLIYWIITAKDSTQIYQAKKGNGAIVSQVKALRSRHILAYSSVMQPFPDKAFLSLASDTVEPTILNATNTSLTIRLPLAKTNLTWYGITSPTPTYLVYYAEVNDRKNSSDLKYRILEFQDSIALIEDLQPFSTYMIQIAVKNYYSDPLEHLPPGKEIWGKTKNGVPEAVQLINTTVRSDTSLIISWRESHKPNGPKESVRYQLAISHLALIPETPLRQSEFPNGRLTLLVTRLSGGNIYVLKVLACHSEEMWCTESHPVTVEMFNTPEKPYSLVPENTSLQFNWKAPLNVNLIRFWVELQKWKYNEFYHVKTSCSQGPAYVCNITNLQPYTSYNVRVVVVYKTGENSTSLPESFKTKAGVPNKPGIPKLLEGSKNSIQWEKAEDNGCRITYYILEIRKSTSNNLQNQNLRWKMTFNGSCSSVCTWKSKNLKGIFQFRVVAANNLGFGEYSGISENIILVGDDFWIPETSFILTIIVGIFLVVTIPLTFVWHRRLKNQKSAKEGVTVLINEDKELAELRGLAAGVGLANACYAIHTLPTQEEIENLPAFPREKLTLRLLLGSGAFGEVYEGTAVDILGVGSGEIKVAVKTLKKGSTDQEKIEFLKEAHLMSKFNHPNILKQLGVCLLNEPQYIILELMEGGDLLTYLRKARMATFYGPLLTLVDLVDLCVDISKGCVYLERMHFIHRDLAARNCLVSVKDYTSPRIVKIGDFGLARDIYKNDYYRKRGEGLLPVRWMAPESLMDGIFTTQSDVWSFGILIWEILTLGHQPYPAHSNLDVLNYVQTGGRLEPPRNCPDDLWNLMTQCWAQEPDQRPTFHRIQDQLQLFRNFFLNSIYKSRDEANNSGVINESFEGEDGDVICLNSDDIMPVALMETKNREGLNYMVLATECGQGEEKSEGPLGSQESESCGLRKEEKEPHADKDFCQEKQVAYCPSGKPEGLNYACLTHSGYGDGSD

Question: Which inhibition does the source give for `Cc1cccc(Oc2nccc(-c3c(-c4ccc(F)cc4)ncn3C3CCNCC3)n2)c1C` here?
Answer: 6.68%

Question: `Fc1ccc(-c2ncn(C3CCNCC3)c2-c2ccnc(Oc3cccc(F)c3)n2)cc1` was tested. Which inhibition did it give?
Answer: 7.15%

Question: Which inhibition does the source give for `O=C(O)c1ccc(Oc2nccc(-c3c(-c4ccc(F)cc4)ncn3C3CCNCC3)n2)cc1` here?
Answer: 9.04%

Question: Which inhibition does the source give for `Fc1ccc(-c2ncn(C3CCNCC3)c2-c2ccnc(Oc3cccc(C(F)(F)F)c3)n2)cc1` here?
Answer: 7.94%

Question: For `CC(C)(C)c1ccc(Oc2nccc(-c3c(-c4ccc(F)cc4)ncn3C3CCNCC3)n2)cc1`, which inhibition is on record?
Answer: 3.44%

Question: How did the inhibition turn out when `COc1ccccc1Oc1nccc(-c2c(-c3ccc(F)cc3)ncn2C2CCNCC2)n1` was run?
Answer: 4.27%

Question: With `O=C1NC(=O)C(c2cccc([N+](=O)[O-])c2)=C1Nc1cc(Cl)c(O)c(Cl)c1` as the molecule, how does the inhibition read?
Answer: 4.51%

Question: How did the inhibition turn out when `Fc1ccc(Oc2nccc(-c3c(-c4ccc(F)cc4)ncn3C3CCNCC3)n2)cc1` was run?
Answer: 7.48%

Question: Which inhibition does the source give for `O=C1NC(=O)C(c2ccccc2)=C1Nc1ccccc1` here?
Answer: 6.36%

Question: With `COc1ccccc1C1=C(Nc2ccccc2)C(=O)NC1=O` as the molecule, how does the inhibition read?
Answer: 9.7%

Question: Which inhibition does the source give for `Fc1ccc(-c2ncn(C3CCNCC3)c2-c2ccnc(Oc3ccc(Cl)cc3)n2)cc1` here?
Answer: 2.37%

Question: With `CS(=O)(=O)c1ccc(Oc2nccc(-c3c(-c4ccc(F)cc4)ncn3C3CCNCC3)n2)cc1` as the molecule, how does the inhibition read?
Answer: 3.96%

Question: Which inhibition does the source give for `O=C1NC(=O)C(c2ccccc2Cl)=C1Nc1cc(Cl)c(O)c(Cl)c1` here?
Answer: 4.36%

Question: How did the inhibition turn out when `NC(=O)CCc1ccccc1Oc1nccc(-c2c(-c3ccc(F)cc3)ncn2C2CCNCC2)n1` was run?
Answer: -1.19%

These molecules were tested against Proto-oncogene tyrosine-protein kinase Src (Homo sapiens) (UniProt P12931). Conditions: at 0.1 µM.
Chain of UniProt P12931 (P12931 whole entry, looked up): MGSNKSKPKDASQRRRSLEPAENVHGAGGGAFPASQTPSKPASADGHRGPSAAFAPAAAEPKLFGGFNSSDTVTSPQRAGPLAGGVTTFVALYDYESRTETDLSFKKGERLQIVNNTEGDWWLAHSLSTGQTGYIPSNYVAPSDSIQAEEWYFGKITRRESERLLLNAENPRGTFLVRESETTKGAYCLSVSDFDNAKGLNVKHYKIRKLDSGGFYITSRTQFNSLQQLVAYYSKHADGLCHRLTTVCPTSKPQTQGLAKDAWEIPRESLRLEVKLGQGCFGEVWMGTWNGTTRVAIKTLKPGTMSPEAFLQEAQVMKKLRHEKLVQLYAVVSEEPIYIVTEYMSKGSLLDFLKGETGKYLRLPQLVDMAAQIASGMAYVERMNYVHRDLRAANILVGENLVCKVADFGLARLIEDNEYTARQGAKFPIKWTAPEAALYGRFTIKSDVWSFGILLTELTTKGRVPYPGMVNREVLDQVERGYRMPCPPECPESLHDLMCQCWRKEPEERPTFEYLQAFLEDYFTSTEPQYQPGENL

Question: Which inhibition does the source give for `Cc1cccc(Oc2nccc(-c3c(-c4ccc(F)cc4)ncn3C3CCNCC3)n2)c1C` here?
Answer: 6.18%

Question: For `Fc1ccc(-c2ncn(C3CCNCC3)c2-c2ccnc(Oc3cccc(F)c3)n2)cc1`, which inhibition is on record?
Answer: 9.91%

Question: For `O=C(O)c1ccc(Oc2nccc(-c3c(-c4ccc(F)cc4)ncn3C3CCNCC3)n2)cc1`, which inhibition is on record?
Answer: 9.4%

Question: With `Fc1ccc(-c2ncn(C3CCNCC3)c2-c2ccnc(Oc3cccc(C(F)(F)F)c3)n2)cc1` as the molecule, how does the inhibition read?
Answer: 9.16%

Question: Which inhibition does the source give for `CC(C)(C)c1ccc(Oc2nccc(-c3c(-c4ccc(F)cc4)ncn3C3CCNCC3)n2)cc1` here?
Answer: 4.96%

Question: `COc1ccccc1Oc1nccc(-c2c(-c3ccc(F)cc3)ncn2C2CCNCC2)n1` was tested. Which inhibition did it give?
Answer: 8%

Question: `O=C1NC(=O)C(c2cccc([N+](=O)[O-])c2)=C1Nc1cc(Cl)c(O)c(Cl)c1` was tested. Which inhibition did it give?
Answer: 1.09%

Question: For `Fc1ccc(Oc2nccc(-c3c(-c4ccc(F)cc4)ncn3C3CCNCC3)n2)cc1`, which inhibition is on record?
Answer: 9.5%

Question: For `O=C1NC(=O)C(c2ccccc2)=C1Nc1ccccc1`, which inhibition is on record?
Answer: -1.81%

Question: For `COc1ccccc1C1=C(Nc2ccccc2)C(=O)NC1=O`, which inhibition is on record?
Answer: 5.48%

Question: With `Fc1ccc(-c2ncn(C3CCNCC3)c2-c2ccnc(Oc3ccc(Cl)cc3)n2)cc1` as the molecule, how does the inhibition read?
Answer: 1.09%

Question: How did the inhibition turn out when `CS(=O)(=O)c1ccc(Oc2nccc(-c3c(-c4ccc(F)cc4)ncn3C3CCNCC3)n2)cc1` was run?
Answer: 6.81%

Question: With `O=C1NC(=O)C(c2ccccc2Cl)=C1Nc1cc(Cl)c(O)c(Cl)c1` as the molecule, how does the inhibition read?
Answer: 0.44%

Question: With `NC(=O)CCc1ccccc1Oc1nccc(-c2c(-c3ccc(F)cc3)ncn2C2CCNCC2)n1` as the molecule, how does the inhibition read?
Answer: -1.91%
